Results on 38 molecules are retold here after PubChem BioAssay AID1745853 (National Center for Advancing Translational Sciences (NCATS), 2022).

Some of the results follow. Further columns of the screen follow, without active or inactive calls.

Common to all, as to assay: Primary Screen for Target Class Profiling of Small Molecule Inhibitors of Methyltransferases
Assay [1] concerns the target Glycine N-methyltransferase (Homo sapiens) (UniProt Q14749). Conditions: purified enzyme, MTase-Glo SAH luminescence; measured here: GNMT inhibition; at 40 µM; stronger effect = lower value. The gist of the method:
(§1)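 Each enzyme was assayed with SAM and its substrate. SAH formation detected by MTase-Glo luminescence; single-point 40 uM screen[…].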

Assay [2] addresses Guanidinoacetate N-methyltransferase (Homo sapiens) (UniProt Q14353). Conditions: purified enzyme, MTase-Glo SAH luminescence; measured here: GAMT inhibition; at 40 µM; stronger effect = lower value. The essentials: as §1
In assay [3] the target is Histamine N-methyltransferase (Homo sapiens) (UniProt P50135). The settings on record: purified enzyme, MTase-Glo SAH luminescence; measured here: HNMT inhibition; at 40 µM; stronger effect = lower value. The gist of the method: as §1
Assay [4] deals with Nicotinamide N-methyltransferase (Homo sapiens) (UniProt P40261). The settings on record: purified enzyme, MTase-Glo SAH luminescence; measured here: NNMT inhibition; at 40 µM; stronger effect = lower value. The gist of the method: as §1
Assay [5] has as its target Phenylethanolamine N-methyltransferase (Homo sapiens) (UniProt P11086). Conditions: purified enzyme, MTase-Glo SAH luminescence; measured here: PNMT inhibition; at 40 µM; stronger effect = lower value. The essentials:
as §1
% is scaled to controls: 0 for no effect and ±100 for the full control effect.

`C[C@H]1CC[C@@]2(OC1)O[C@H]1CC3C4CC[C@H]5C[C@@H](O)[C@H](O)C[C@]5(C)C4=CC(=O)[C@]3(C)[C@H]1[C@@H]2C` (stereo partly specified): the activity change, negative = inhibition in assay [1] is -2.37%; in assay [2], -8.4%; in assay [3] it was 2.29%; in assay [4] it was -15.9%; in assay [5], -4.59%.
The matching figures for `O=C(/C=C/c1ccc(O)c(O)c1)OCCc1ccccc1`: -12.1%, 13.2%, 3.76%, -2.88% and 7.27%.
On the same counts, the results for `CC1CCC(NC(=O)C2(C)Cn3c(cc4sccc43)C(=O)N2Cc2ccccc2)CC1` (stereo unspecified) are -4.51%, 4.99%, -2.69%, -5.9% and -2.63%.
As to `COc1ccc(OC)c2c1cc1n2CC(C)(C(=O)NC2CCC(C)CC2)N(Cc2cccnc2)C1=O` (stereo unspecified), the activity change, negative = inhibition in assay [1] was -0.145%; in assay [2], 2.23%; in assay [3], 5.64%; in assay [4], 1.63%; in assay [5] it was 0.602%.
For `Cc1cn2nc(C(=O)NC3CCC(C)CC3)cc2c(N2CCCC2)n1` (stereo unspecified), the activity change, negative = inhibition in assay [1] is -7.97%; in assay [2] it was -5.94%; in assay [3] it was -30.2%; in assay [4] it was -18.1%; in assay [5], -9.73%.
On the same counts, the results for `CCCC(Nc1nc(-c2ccc(NC(=O)NCC)c(OC)c2)ncc1C)c1cccnc1` (stereo unspecified) are -20.8%, -11.3%, -40.5%, -25.3% and -18.5%.
On to `CCOC(=O)CNC(=O)C1(C)Cn2nc(C(=O)OCC)cc2C(=O)N1Cc1cccc(C)c1` (stereo unspecified), for which the activity change, negative = inhibition in assay [1] was 0.296%; in assay [2], -2.14%; in assay [3], 4.93%; in assay [4], 1.46%; in assay [5], -0.399%.
`O=C(OC1C=C(CO)C2C(OC3OC(CO)C(O)C(O)C3O)OC=CC12)c1ccc(O)cc1` (stereo unspecified): the activity change, negative = inhibition in assay [1] is 0%; in assay [2], -1.4%; in assay [3], -1.4%; in assay [4], -12.6%; in assay [5], 1.87%.
For the molecule `COCCc1noc(CNC(=O)c2ccc(-c3ccccc3Cl)o2)n1`, the activity change, negative = inhibition was -8.8% in assay [1]; -4.71% in assay [2]; -12.1% in assay [3]; -3.04% in assay [4]; -4.45% in assay [5].
On the same counts, the results for `Fc1ccc(-c2nnn3c2nc(NCc2ccccc2)c2ccccc23)cc1` are -4.12%, 0.975%, -1.12%, -4.09% and -5.57%.
The matching figures for `C=C1C(=O)O[C@@H]2C/C(C)=C\C(=O)/C=C(\C)[C@@H](OC(=O)/C(C)=C\C)[C@H](O)[C@@H]12`: -4.8%, -16.7%, -10.6%, -28.9% and -12%.
On the same counts, the results for `CC(C)Oc1ccc(CN2C(=O)c3ccc(-c4ccco4)n3CC2(C)C(=O)NC2CCCC2)cc1` (stereo unspecified) are -11.7%, 4.24%, 4.61%, -8.05% and 0.194%.
Turning to `CCCC1c2ccc(C)n2CCN1C(=O)Nc1ccccc1C(=O)OCC` (stereo unspecified), the activity change, negative = inhibition is -2.16% in assay [1]; 0% in assay [2]; 1.18% in assay [3]; 8.23% in assay [4]; 1.89% in assay [5].
On the same counts, the results for `CC1(C(=O)NC2CCCCC2)Cn2c(nc3ccccc32)C(=O)N1Cc1ccccc1F` (stereo unspecified) are 1.83%, 0%, 5.66%, 6.44% and 0.266%.
On the same counts, the results for `COc1cccc(C(=O)Cn2nc3n(CC(C)C)c(=O)c4ccc(C(=O)NC(C)C)cc4n3c2=O)c1` are 8.57%, 3.35%, 10.7%, 5.99% and 8.31%.
As to `CCOCCCNC(=O)c1cc2cn(C3CC3)cc2s1`, the activity change, negative = inhibition was -9.66% in assay [1]; -4.43% in assay [2]; -2.15% in assay [3]; 0.15% in assay [4]; -15.6% in assay [5].
On the same counts, the results for `COc1cc(O)c2c(c1)C1OC1C[C@H](O)[C@H](O)C(=O)/C=C\C[C@H](C)OC2=O` (stereo partly specified) are -49.5%, -4.42%, -1.03%, -12.3% and -2.37%.
On the same counts, the results for `C=CCn1c(=O)c2ccc(C(=O)NC(C)C)cc2n2c(=O)n(CC(=O)Nc3ccccc3C)nc12` are 5.05%, 0%, 6.8%, -0.918% and 6.52%.
The matching figures for `COc1cccc(CNc2nc3c(S(=O)(=O)c4ccccc4)nnn3c3ccc(Cl)cc23)c1`: 0.398%, 2.88%, -2.75%, -8.79% and -1.9%.
In the case of `COCCNC(=O)c1ccc2c(=O)nc3c(-c4cccc(F)c4)n[nH]n3c2c1`, the activity change, negative = inhibition in assay [1] is 0.735%; in assay [2], -3.67%; in assay [3] it was 2.54%; in assay [4] it was 3.07%; in assay [5], -1.93%.
The matching figures for `CC(C)OCCCn1c(=O)c2ccccc2n2c(=O)n(Cc3ccc(F)cc3Cl)nc12`: -5.65%, 0.954%, 3.38%, -15.7% and -3.15%.
`CCC(C)NC(=O)Cn1c(=O)oc2cc(S(=O)(=O)NC3CCCC3)ccc21` (stereo unspecified): the activity change, negative = inhibition in assay [1] was determined as 2.36%; in assay [2], 1.48%; in assay [3] it was 9.02%; in assay [4], 14.3%; in assay [5], 3.52%.
As for `c1ccc(-n2cc(CN3CCCN(Cc4cccs4)CC3)nn2)cc1`, the activity change, negative = inhibition in assay [1] was -10.2%; in assay [2], -13%; in assay [3] it was -12.2%; in assay [4], -19.7%; in assay [5] it was -27.2%.
As to `COc1ccc(OC)c(N2C(=O)C(Cl)=C(N3CCCCC3)C2=O)c1`, the activity change, negative = inhibition in assay [2] is 1.42%; in assay [4], -17.2%; in assay [5] it was -9.44%.
As to `CCOC(=O)c1cc2n(n1)CC(C)(C(=O)NCCCOC(C)C)N(c1ccc(F)cc1C)C2=O` (stereo unspecified), the activity change, negative = inhibition in assay [1] was 6.41%; in assay [2], 6.72%; in assay [3], 11.1%; in assay [4], 4.85%; in assay [5], 6.49%.
The matching figures for `C[C@@H]1COCCN1c1cc(C2(S(C)(=O)=O)CC2)nc(-c2cccc3[nH]ccc23)n1`: -2.13%, 0.037%, 6.24%, -9.87% and 2.95%.
The matching figures for `C=C1C(=O)O[C@@H]2CC(C)=C([C@@H](C)CCCO)[C@@H](OC(=O)C(C)C)[C@H]12`: 1.44%, -1.52%, 4.8%, -18.4% and 3.99%.
On the same counts, the results for `CC(C)OCCCn1c(=O)c2ccccc2n2c(=O)n(Cc3ccc(Cl)cc3)nc12` are -1.59%, 0%, 7.66%, -15% and -1.74%.
On to `Cc1cc2c(F)c(Oc3ncnn4cc(OC[C@@H](C)OC(=O)[C@H](C)N)c(C)c34)ccc2[nH]1`, for which the results for the activity change, negative = inhibition in assay [2], in assay [4] and in assay [5] were 4.02%, -27.6% and -7.56%, respectively.
As to `CCN1C(=O)c2cc(C(=O)NCc3ccccn3)nn2CC1(C)C(=O)NC1CCCC1` (stereo unspecified), the activity change, negative = inhibition in assay [1] was 1.28%; in assay [2], 3.47%; in assay [3] it was 1.89%; in assay [4], 2.31%; in assay [5], -1.51%.
The matching figures for `COc1cc(SC)c(OC)cc1CN1CCC2(CC(=O)NC2=O)C1` (stereo unspecified): -7.61%, -12.4%, -3.92%, -16.8% and 4.15%.
On the same counts, the results for `Cc1ccc(CN2C(=O)c3ccc(-c4ccco4)n3CC2(C)C(=O)NC2CCCCC2)cc1` (stereo unspecified) are -22.2%, -11.1%, -5.69%, -19.8% and -9.85%.
The matching figures for `CCCn1c(=O)c2ccc(C(=O)NCC(C)C)cc2n2c(=O)n(Cc3ccc(C)cc3)nc12`: 3.76%, 2.44%, 5.53%, -0.553% and 5.4%.
Consider `CS(=O)(=O)Nc1ccc2oc3c(OC(F)F)ccc(C(=O)Nc4c(Cl)cncc4Cl)c3c2c1`, for which the activity change, negative = inhibition in assay [1] was -68.5%; in assay [2], -0.426%; in assay [3], -4.1%; in assay [4], -16.8%; in assay [5], -6.21%.
On the same counts, the results for `CCCCc1ccc(NC(=O)CN2C(=O)NC3(CCS(=O)(=O)CC3)C2=O)cc1` are -6%, -8.1%, -1.39%, -9.47% and -2.4%.
Take `CCOc1ccc(CNC(=O)C2c3ccccc3CC(=O)N2CC)cc1` (stereo unspecified): the activity change, negative = inhibition in assay [1] was -8.92%; in assay [2], -11.3%; in assay [3] it was -6.24%; in assay [4] it was -11.9%; in assay [5], -14.6%.
On the same counts, the results for `Cc1cccc(CN2C(=O)c3cc(-c4ccco4)nn3CC2(C)C(=O)NCCC(C)C)c1` (stereo unspecified) are -3.23%, 3.05%, -3.25%, -8.92% and -6.51%.
Consider `COCCCNC(=O)c1cnc2n[nH]c(-c3ccccc3)c2n1`, for which the activity change, negative = inhibition in assay [1] is -85.7%; in assay [2], -80.4%; in assay [3] it was -87.8%; in assay [4], -78.7%; in assay [5], -78.3%.
